Experimental data from paper PMC4336329 (PLoS ONE, 2015).
Among all 310,000 compounds or so, about 14,000 (4.5%) showed an effect of 50% or more. Effects have a minus sign here. The list shows a part of the results.

Target: human ether-à-go-go-related gene (hERG) potassium channel (human, UniProt Q12809)
Assay: primary screen, population patch clamp on CHO cells stably expressing hERG
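Note: peak tail current of the secondary pulse compared with the same well before compound.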

Sequence of human ether-à-go-go-related gene (hERG) potassium channel (Q12809 whole entry, looked up): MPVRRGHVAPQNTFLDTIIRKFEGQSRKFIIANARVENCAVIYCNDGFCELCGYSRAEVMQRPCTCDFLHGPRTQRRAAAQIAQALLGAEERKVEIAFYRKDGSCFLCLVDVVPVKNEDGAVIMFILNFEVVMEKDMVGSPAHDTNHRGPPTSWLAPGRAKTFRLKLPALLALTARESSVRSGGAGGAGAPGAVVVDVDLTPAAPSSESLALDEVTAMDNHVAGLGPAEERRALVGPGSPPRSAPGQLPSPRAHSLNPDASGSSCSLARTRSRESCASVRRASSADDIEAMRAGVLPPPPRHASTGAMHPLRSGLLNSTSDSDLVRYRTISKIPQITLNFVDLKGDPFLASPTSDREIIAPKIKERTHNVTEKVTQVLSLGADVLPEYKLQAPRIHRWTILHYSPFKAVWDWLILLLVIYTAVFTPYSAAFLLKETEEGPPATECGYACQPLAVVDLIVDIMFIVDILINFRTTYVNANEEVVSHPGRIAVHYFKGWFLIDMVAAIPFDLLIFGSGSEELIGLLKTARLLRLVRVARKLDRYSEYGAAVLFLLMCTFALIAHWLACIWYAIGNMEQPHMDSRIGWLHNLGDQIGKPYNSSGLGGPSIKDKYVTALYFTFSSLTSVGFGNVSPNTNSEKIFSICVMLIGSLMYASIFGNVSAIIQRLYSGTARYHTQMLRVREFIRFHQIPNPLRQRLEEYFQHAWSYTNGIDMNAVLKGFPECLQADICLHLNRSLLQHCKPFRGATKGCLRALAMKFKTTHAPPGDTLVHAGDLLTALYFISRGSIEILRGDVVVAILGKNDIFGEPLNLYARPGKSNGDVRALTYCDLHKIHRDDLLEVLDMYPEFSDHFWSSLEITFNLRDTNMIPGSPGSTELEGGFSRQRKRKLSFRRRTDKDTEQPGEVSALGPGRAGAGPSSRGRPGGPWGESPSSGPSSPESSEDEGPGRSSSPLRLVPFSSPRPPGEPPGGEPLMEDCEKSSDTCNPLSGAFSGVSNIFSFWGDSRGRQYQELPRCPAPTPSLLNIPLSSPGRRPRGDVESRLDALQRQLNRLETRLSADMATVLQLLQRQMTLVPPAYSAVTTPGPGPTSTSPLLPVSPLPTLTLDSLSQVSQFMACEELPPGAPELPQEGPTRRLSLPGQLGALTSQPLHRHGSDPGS

SMILES	hERG current change (%, negative = inhibition) at 10uM [%]
CC(=O)Oc1cc2oc(=O)cc(C)c2cc1Cl	12.2
Cc1nn(Cc2noc(C(=O)NCC3CCCO3)n2)c(C)c1Br (centres unmarked)	11.5
O=C(OCc1nnc(-c2ccccc2)o1)c1ccc([N+](=O)[O-])s1	-16.1
Cc1ccc(OCC(=O)N2CCN(Cc3ccc4c(c3)OCO4)CC2)cc1.O=C(O)C(=O)O	-15.7
CCOc1ccc(Cn2nnc(C(=O)NCCc3ccc(Cl)cc3)c2N)cc1	17.4
CC1Oc2ccccc2N(CC(=O)NC2CC2)C1=O (centres unmarked)	2.95
CCc1nc2n[nH]c(N)c2c2c1CSC(C)(C)C2	-9.06
COC(=O)c1ccc(S(=O)(=O)N2CCCN(Cc3ccccc3)CC2)n1C	-8.28
Nc1nnc(/C=C/c2cccc([N+](=O)[O-])c2)s1	9.07
CN(C)NC(=S)NC(=O)C12CC3CC(CC(C3)C1)C2	13.2
COc1cccc(NC(=O)c2cc(-c3ccc(OC)cc3OC)nc3ccccc23)c1	11.4
CC(=O)c1ccc(C(=O)N2CCC(n3nccc3NC(=O)C3CC3)CC2)cc1	-35.8
NS(=O)(=O)c1ccc(NC(=O)C2CCCO2)cc1 (centres unmarked)	12.8
CC(=O)N1CCC[C@H]1C(=O)O	6.95
CCc1ccccc1NC(=O)CN1CCN(C(=O)CNC(=O)Cc2cccc3ccccc23)CC1	-59.6
COc1ccc(N2CCN(CCC(O)c3ccc4ccccc4c3)CC2)cc1 (centres unmarked)	-68.3
O=C(NCCN1CCOCC1)C1CCN(c2nc3ccccc3o2)CC1	-18.7
C=CCOn1c(-n2nc(C)cc2C)nc2ccccc2c1=O	12.8
O=C(Cn1nnc(-c2ccncc2)n1)NCCc1ccccc1	3.47
COc1ccc(OC)c(S(=O)(=O)N/N=C\c2ccc3c(c2)OCO3)c1	12.9
CCN1CCN(c2oc(-c3ccco3)nc2C#N)CC1	-24.1
CC(=O)Nc1ccc(C2=NN(CC#N)C(=O)SC2)cc1	11.9

SMILES	hERG current change (%, negative = inhibition) at 10uM [%]
O=C(NCCc1ccc(Cl)cc1)c1cccc(NC2=NC3CS(=O)(=O)CC3S2)c1 (centres unmarked)	12.2
CN(C)/C=C(\C=O)c1ncc(C(F)(F)F)cc1Cl	12.9
CC(C)n1cnc2cc(NCc3ccco3)ccc21.Cl	-9.63
CCOC(=O)C(Sc1cc(-c2ccccc2)nc2ncnn12)C(C)=O (centres unmarked)	16
Cc1ccc2c(COC(=O)CNC(=O)c3ccccc3)cc(=O)oc2c1	-27.6
C=CCn1cc(F)c(=O)n(CC=C)c1=O	4.34
COCCNC(=O)CN(C(=O)CCC(=O)Nc1cc(C)on1)c1cccc(C)c1C	10.6
CC1=CC(C)(C)Nc2ccccc21	15.3
CC(OC(=O)c1cccc(-n2cnnn2)c1)C(=O)Nc1cccc(Cl)c1 (centres unmarked)	-2.88
COc1ccc(C(=O)CC2(CC(=O)c3ccc(OC)cc3)C(=O)N(C)C(=O)N(C)C2=O)cc1	4.16
O=C(/C=C/c1ccccc1)NCCc1c[nH]c2ccccc12	-11.3
O=c1oc2cc(Cl)ccc2n1CSc1nc2ccccc2s1	10.8
O=C(CN(C(=O)C1CSC(=O)C1)c1cccc(F)c1)NCc1ccc2c(c1)OCO2 (centres unmarked)	-14.7
CC(C)CCNC(=O)C(c1ccco1)N(Cc1ccccc1)C(=O)c1snc(C(N)=O)c1N (centres unmarked)	-20
COc1cc(Nc2ccc(C)cc2)c([N+](=O)[O-])nc1[N+](=O)[O-]	-1.14
COC(=O)CCC(=O)OC1(C)C(=O)C=C2C=C(C3CC3)N(C(CO)CO)C=C2C1=O (centres unmarked)	5.72
Nc1ccc(C(=O)N/N=C/c2sc(N3CCOCC3)nc2-c2ccccc2)cc1	-21.6
CCCn1c(SCC(=O)c2[nH]c(C)c(C(C)=O)c2C)n[nH]c1=O	-1.57
COC(=O)C1=C(c2ccc(F)cc2OCc2ccccc2)C[C@@H]2CC[C@H]1N2C(=O)NCCOc1ccccc1	23.6
CC(C)c1ccc(S(=O)(=O)N2CCN(C(=O)C3CCCCC3)CC2)cc1	-2.35
Cc1cc(O)c(C(=O)/C=C/c2ccccc2O)c(=O)o1	2.46
CCOC(=O)Cc1csc(NC(=O)CSc2nnc(Cc3csc(N)n3)n2C)n1	-1.19
